# Measurements reported in the supplement of paper PMC12217912.
# The list shows a part of the results. The full chains were built here from the parent and the listed change. Inactive controls read about 0.05.
# B1: TEV protease; numbered along this chain (parent)
# chain: MGESLFKGPRDYNPISSSICHLTNESDGHTTSLYGIGFGPFIITNKHLFRRNNGTLVVQSLHGVFKVKDTTTLQQHLVDGRDMIIIRMPKDFPPFPQKLKFREPQREERICLVTTNFQTKSMSSMVSDTSCTFPSGDGIFWKHWIQTKDGQCGSPLVSTRDGFIVGIHSASNFTNTNNYFTSVPKNFMELLTNQEAQQWVSGWRLNADSVLWGGHKVFMVKPEEPFQPVKEATQL
# Variants of: B1
# Assay: raw area under fraction-flipped curve 0-4 h after induction (AUC4h, not background-subtracted), DNA-recorder readout of cleavage of the substrate (dimensionless); higher = more cleavage of the substrate by the protease variant
# Details: temperature: 34 °C; time window: 0-4 h after rhamnose induction
# Protocol: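 In vivo DNA recorder in E. coli TOP10(DE3) ΔrhaA at 34 °C. Each TEVp single-site mutant (parent TEVp 0) is paired with a single-site variant of the 7-mer TEVs (canonical ENLYFQ|S). The substrate sits between flexible linkers in a Bxb1-sfGFP-TEVs-SsrA fusion, so cleavage stabilises Bxb1 and speeds flipping of a recombination array, read by NGS. The value is the raw area under the fraction-flipped curve over 0-4 h after rhamnose induction (AUC4h), with ≥20 reads per time point. It is not background-subtracted; inactive controls average about 0.047.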
# 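Further: Bxb1 expression induced with 0.2% (w/v) L-rhamnose at OD600 near 0.5, cultures sampled hourly, flipped fraction per protease–substrate barcode pair counted by paired-end Illumina sequencing.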
Variant,area with substrate ENLYCQS,area with substrate ENLYEQS,area with substrate ENLYGQS,area with substrate ENLYHQS,area with substrate ENLYIQS,area with substrate ENLYLQS,area with substrate ENLYMQS,area with substrate ENLYNQS,area with substrate ENLYPQS,area with substrate ENLYQQS,area with substrate ENLYRQS,area with substrate ENLYSQS,area with substrate ENLYTQS,area with substrate ENLYVQS,area with substrate ENLYWQS,area with substrate ENLYYQS,area with substrate ENLYDQS,area with substrate ENLYKQS
MGESLFKGPRDYNPISSSICHLTNESDGHTTSLYGIGFGPFIITNKHLFRRNNGTLVVQSLHGVFKVKDTTTLQQHLVDGRDMIIIRMPKDFPPFPQKLKFREPQREERICLVTTQFQTKSMSSMVSDTSCTFPSGDGIFWKHWIQTKDGQCGSPLVSTRDGFIVGIHSASNFTNTNNYFTSVPKNFMELLTNQEAQQWVSGWRLNADSVLWGGHKVFMVKPEEPFQPVKEATQL [N116Q],0.0847,0.0803,0.0635,0.0585,0.0973,0.0821,0.124,0.0793,0.0896,0.0059,0.0613,0.0858,0.0769,0.08,0.0811,0.0623,,
MGESLFKGPRDYNPISSSICHLTNESDGHTTSLYGIGFGPFIITNKHLFRRNNGTLVVQSLHGVFKVKDTTTLQQHLVDGRDMIIIRMPKDFPPFPQKLKFREPQREERICLVTTNFQTKSMSSMVSDTSCTFPSGDGAFWKHWIQTKDGQCGSPLVSTRDGFIVGIHSASNFTNTNNYFTSVPKNFMELLTNQEAQQWVSGWRLNADSVLWGGHKVFMVKPEEPFQPVKEATQL [I139A],0.0848,0.063,,0.039,0.086,,,0.0657,,,0.0527,0.0668,0.0725,0.11,0.0911,,0.0516,0.0546
MGESLFKGPRDYNPISSSICHLTNESDGHTTSLYGIGFGPFIITNKHLFRRNNGTLVVQSLHGVFKVKDTTTLQQHLVDGRDMIIIRMPKDFPPFPQKLKFREPQREERICLVTTNFQTKSMSSMVSDTSCTFPSGDGIFWSHWIQTKDGQCGSPLVSTRDGFIVGIHSASNFTNTNNYFTSVPKNFMELLTNQEAQQWVSGWRLNADSVLWGGHKVFMVKPEEPFQPVKEATQL [K142S],0.0603,0.0584,0.068,0.0722,,,0.0785,0.0695,0.0642,0.0611,0.0741,0.0812,0.0896,0.103,0.076,0.0593,0.0646,
MGESLFKGPRDYNPISSSICHLTNESDGHTTSLYGIGFGPFIITNKHLFRRNNGTLVVQSLHGVFKVKDTTTLQQHLVDGRDMIIIRMPKDFPPFPQKLKFREPQREERILLVTTNFQTKSMSSMVSDTSCTFPSGDGIFWKHWIQTKDGQCGSPLVSTRDGFIVGIHSASNFTNTNNYFTSVPKNFMELLTNQEAQQWVSGWRLNADSVLWGGHKVFMVKPEEPFQPVKEATQL [C111L],0.111,0.063,0.0646,0.0579,0.133,,0.0797,0.0633,0.077,,,0.085,0.0588,,,,0.0654,
MGESLFKGPRDYNPISSSICHLTNESDGHTTSLYGIGFGPFIITNKHLFRRNNGTLVVQSLHGVFKVKDTTTLQQHLVDGRDMIIIRMPKDFPPFPQKLKFREPMREERICLVTTNFQTKSMSSMVSDTSCTFPSGDGIFWKHWIQTKDGQCGSPLVSTRDGFIVGIHSASNFTNTNNYFTSVPKNFMELLTNQEAQQWVSGWRLNADSVLWGGHKVFMVKPEEPFQPVKEATQL [Q105M],0.11,0.065,0.0732,0.0664,,,0.0795,,0.0813,,0.0654,0.0687,0.112,0.104,0.085,0.0767,0.0711,0.0631
MGESLFKGPRDYNPISSSICHLTNESDGHTTSLYGIGFGPFIITNKHLFRRNNGTLVVQSLHGVFKVKDTTTLQQHLVDGRDMIIIRMPKDFPPFPQKLKFREPQREERICLVTTNFTTKSMSSMVSDTSCTFPSGDGIFWKHWIQTKDGQCGSPLVSTRDGFIVGIHSASNFTNTNNYFTSVPKNFMELLTNQEAQQWVSGWRLNADSVLWGGHKVFMVKPEEPFQPVKEATQL [Q118T],0.0918,,0.067,,,,0.0757,0.0711,,,0.106,,,0.129,0.106,0.0693,0.0937,0.0641
MGESLFKGPRDYNPISSSICHLTNESDGHTTSLYGIGFGPFIITNKHLFRRNNGTLVVQSLHGVFKVKDTTTLQQHLVDGRDMIIIRMPKDFPPFPQILKFREPQREERICLVTTNFQTKSMSSMVSDTSCTFPSGDGIFWKHWIQTKDGQCGSPLVSTRDGFIVGIHSASNFTNTNNYFTSVPKNFMELLTNQEAQQWVSGWRLNADSVLWGGHKVFMVKPEEPFQPVKEATQL [K98I],0.0634,0.0688,0.0623,0.0263,0.132,0.0787,0.0811,0.0759,0.0565,0.0663,0.0652,0.0832,0.0907,0.119,0.0723,0.0675,0.0546,0.063
MGESLFKGPRDYNPISSSICHLTNESDGHTTSLYGIGFGPFIITNKHLFRRNNGTLVVQSLHGVFKVKDTTTLQQHLVDGRDMIIIRMPKDFPPFPQKLKFREPQREERICLVTTNFQTKSMMSMVSDTSCTFPSGDGIFWKHWIQTKDGQCGSPLVSTRDGFIVGIHSASNFTNTNNYFTSVPKNFMELLTNQEAQQWVSGWRLNADSVLWGGHKVFMVKPEEPFQPVKEATQL [S123M],0.0856,0.0711,0.082,,0.112,,0.0981,0.0598,,0.0834,0.0566,0.0905,,,,0.0658,0.063,0.0345
MGESLFKGPRDYNPISSSICHLTNESDGHTTSLYGIGFGPFIITNKHLFRRNNGTLVVQSLHGVFKVKDTTTLQQHLVDGRDMIIIRMPKDFPPFPQKLKFREPQREERICLVTTNFQTKSMSSMVSDTSCTFPSGDGIFWKAWIQTKDGQCGSPLVSTRDGFIVGIHSASNFTNTNNYFTSVPKNFMELLTNQEAQQWVSGWRLNADSVLWGGHKVFMVKPEEPFQPVKEATQL [H143A],0.0809,0.0669,,0.0603,0.0978,,0.0701,0.0647,0.061,0.0623,,0.0688,,0.0931,0.0718,0.0548,0.0594,0.0625
MGESLFKGPRDYNPISSSICHLTNESDGHTTSLYGIGFGPFIITNKHLFRRNNGTLVVQSLHGVFKVKDTTTLQQHLVDGRDMIIIRMPKDFPPFPQKLKFRQPQREERICLVTTNFQTKSMSSMVSDTSCTFPSGDGIFWKHWIQTKDGQCGSPLVSTRDGFIVGIHSASNFTNTNNYFTSVPKNFMELLTNQEAQQWVSGWRLNADSVLWGGHKVFMVKPEEPFQPVKEATQL [E103Q],0.113,0.0691,0.0624,0.0675,0.118,0.0723,0.078,0.0657,0.0785,0.062,0.0603,,,0.103,0.086,0.0473,0.05,0.0597
MGESLFKGPRDYNPISSSICHLTNESDGHTTSLYGIGFGPFIITNKHLFRRNNGTLVVQSLHGVFKVKDTTTLQQHLVDGRDMIIIRMPKDFPPFPQKLKFREPQRWERICLVTTNFQTKSMSSMVSDTSCTFPSGDGIFWKHWIQTKDGQCGSPLVSTRDGFIVGIHSASNFTNTNNYFTSVPKNFMELLTNQEAQQWVSGWRLNADSVLWGGHKVFMVKPEEPFQPVKEATQL [E107W],0.0717,,,0.0674,0.117,,0.0713,0.075,0.0857,,,,,,0.0656,,0.0608,
MGESLFKGPRDYNPISSSICHLTNESDGHTTSLYGIGFGPFIITNKHLFRRNNGTLVVQSLHGVFKVKDTTTLQQHLVDGRDMIIIRMPKDFPPFPQKLKFREPQREERICLVTTNFQTKSMSSMMSDTSCTFPSGDGIFWKHWIQTKDGQCGSPLVSTRDGFIVGIHSASNFTNTNNYFTSVPKNFMELLTNQEAQQWVSGWRLNADSVLWGGHKVFMVKPEEPFQPVKEATQL [V126M],0.117,0.0713,0.065,0.0654,0.141,0.0823,,0.0625,,,0.0392,0.0718,,0.0964,0.0828,0.0475,0.0582,0.0626
MGESLFKGPRDYNPISSSICHLTNESDGHTTSLYGIGFGPFIITNKHLFRRNNGTLVVQSLHGVFKVKDTTTLQQHLVDGRDMIIIRMPKDFPPFPQKLKFREPQREERICLVTTNFQTKSMSSMWSDTSCTFPSGDGIFWKHWIQTKDGQCGSPLVSTRDGFIVGIHSASNFTNTNNYFTSVPKNFMELLTNQEAQQWVSGWRLNADSVLWGGHKVFMVKPEEPFQPVKEATQL [V126W],0.075,0.0622,0.0704,0.0655,0.111,0.0762,0.107,0.0631,0.076,0.0654,0.0702,0.0821,0.0874,0.127,0.0797,,0.0954,0.0857
MGESLFKGPRDYNPISSSICHLTNESDGHTTSLYGIGFGPFIITNKHLFRRNNGTLVVQSLHGVFKVKDTTTLQQHLVDGRDMIIIRMPKDFPGFPQKLKFREPQREERICLVTTNFQTKSMSSMVSDTSCTFPSGDGIFWKHWIQTKDGQCGSPLVSTRDGFIVGIHSASNFTNTNNYFTSVPKNFMELLTNQEAQQWVSGWRLNADSVLWGGHKVFMVKPEEPFQPVKEATQL [P94G],0.0993,0.0836,0.064,0.064,0.167,0.0587,0.0931,0.0573,0.0719,,,0.0818,0.0972,0.144,0.103,0.084,,0.0189
MGESLFKGPRDYNPISSSICHLTNESDGHTTSLYGIGFGPFIITNKHLFRRNNGTLVVQSLHGVFKVKDTTTLQQHLVDGRDMIIIRMPKDFPIFPQKLKFREPQREERICLVTTNFQTKSMSSMVSDTSCTFPSGDGIFWKHWIQTKDGQCGSPLVSTRDGFIVGIHSASNFTNTNNYFTSVPKNFMELLTNQEAQQWVSGWRLNADSVLWGGHKVFMVKPEEPFQPVKEATQL [P94I],0.061,0.06,0.0642,0.0647,,,0.0923,0.0552,0.0501,,,0.0887,0.0795,0.132,0.0775,0.0624,0.0617,0.0671
MGESLFKGPRDYNPISSSICHLTNESDGHTTSLYGIGFGPFIITNKHLFRRNNGTLVVQSLHGVFKVKDTTTLQQHLVDGRDMIIIRMPKDFPPFPQKLKFREPQREERICLVTTNFQTKSMSSMVSDQSCTFPSGDGIFWKHWIQTKDGQCGSPLVSTRDGFIVGIHSASNFTNTNNYFTSVPKNFMELLTNQEAQQWVSGWRLNADSVLWGGHKVFMVKPEEPFQPVKEATQL [T129Q],0.0902,,0.057,0.0658,0.128,0.0851,,0.0445,0.0678,0.0638,0.0773,,,,0.0732,0.076,,0.0569
MGESLFKGPRDYNPISSSICHLTNESDGHTTSLYGIGFGPFIITNKHLFRRNNGTLVVQSLHGVFKVKDTTTLQQHLVDGRDMIIIRMPKDFPPFPQKLKFREPQREERICLVTTNFQTKSMSSMVSDISCTFPSGDGIFWKHWIQTKDGQCGSPLVSTRDGFIVGIHSASNFTNTNNYFTSVPKNFMELLTNQEAQQWVSGWRLNADSVLWGGHKVFMVKPEEPFQPVKEATQL [T129I],0.071,0.0694,0.0675,0.0503,0.117,,,,0.0624,,,,0.0724,0.0771,0.068,0.0617,0.0658,0.0732
MGESLFKGPRDYNPISSSICHLTNESDGHTTSLYGIGFGPFIITNKHLFRRNNGTLVVQSLHGVFKVKDTTTLQQHLVDGRDMIIIRMPKDFPPFPQKLKFREPQREERICLVTTNFQTKSMSSMVSDTSCTFPSGLGIFWKHWIQTKDGQCGSPLVSTRDGFIVGIHSASNFTNTNNYFTSVPKNFMELLTNQEAQQWVSGWRLNADSVLWGGHKVFMVKPEEPFQPVKEATQL [D137L],0.104,,0.0357,0.0683,0.14,0.0863,0.0725,,,0.068,0.0635,,,0.101,,,0.061,0.0461
